# Results published in the supplement of paper PMC8728848.
# This is one part of the list.
# B1: Epa12 (Candida glabrata) (protein)
# chain: MGSSHHHHHHSSGLVPRGSHMLEPDNSLQIFDSFLSNPSKYPLGCSPKITNPKKGLSMELYSYPYRKKGSHPCWDPAYLDPNFPRVGYKKNKLIARVDGVSGDINFNFHPKRQCTPIADYLPPNFNYNEPITTTNFTMLLYGYFKPKVTGLHTFDISADDLLFMNFGAGNAFDCCRRDSTADTFGNYVAWAIWGRRIVRNKLTVRLDKGIYYPLRLFFNNRDYYGQMRLTFKTEHGSERITDFSDYFFSVDDTSEGCPGLITYESECADVKSSTVLETDYITIQAEKE
# Columns and labels:
# Assay in all cases: glycan array binding signal (z-score within array); higher = stronger binding
# Conditions in all cases: glycan notation: IUPAC condensed, linker removed
# [1] = target: Gal(b1-4)GlcNAc(b1-3)Gal(b1-3)GalNAc
# Outline: (§1)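 Glycan array binding is given as a within-array Z-score, which can be read as non-binding when negative. The arrays, 3228 of them, came from the Consortium for Functional Glycomics database and were retained only where the protein sequence was available. Z-scores were averaged across arrays of the same protein sequence at different concentrations or buffers and across linkers.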
# [2] = target: Gal(b1-4)GlcNAc(b1-3)Gal(b1-3)GlcNAc
# Outline: as §1
# [3] = target: Gal(b1-4)GlcNAc(b1-3)Gal(b1-4)Glc
# Outline: as §1
# [4] = target: Gal(b1-4)GlcNAc(b1-3)Gal(b1-4)GlcNAc
# Outline: as §1
# [5] = target: Gal(b1-4)GlcNAc(b1-3)Gal(b1-4)GlcNAc(b1-2)Man(a1-3)[Gal(b1-4)GlcNAc(b1-3)Gal(b1-4)GlcNAc(b1-2)Man(a1-6)]Man(b1-4)GlcNAc(b1-4)GlcNAc
# Outline: as §1
# [6] = target: Gal(b1-4)GlcNAc(b1-3)Gal(b1-4)GlcNAc(b1-2)Man(a1-3)[Gal(b1-4)GlcNAc(b1-3)Gal(b1-4)GlcNAc(b1-2)Man(a1-6)]Man(b1-4)GlcNAc(b1-4)[Fuc(a1-6)]GlcNAc
# Outline: as §1
# [7] = target: Gal(b1-4)GlcNAc(b1-3)Gal(b1-4)GlcNAc(b1-2)[Gal(b1-4)GlcNAc(b1-3)Gal(b1-4)GlcNAc(b1-6)]Man(a1-6)[Gal(b1-4)GlcNAc(b1-3)Gal(b1-4)GlcNAc(b1-2)Man(a1-3)]Man(b1-4)GlcNAc(b1-4)GlcNAc
# Outline: as §1
# [8] = target: Gal(b1-4)GlcNAc(b1-3)Gal(b1-4)GlcNAc(b1-2)[Gal(b1-4)GlcNAc(b1-3)Gal(b1-4)GlcNAc(b1-6)]Man(a1-6)[Gal(b1-4)GlcNAc(b1-3)Gal(b1-4)GlcNAc(b1-2)Man(a1-3)]Man(b1-4)GlcNAc(b1-4)[Fuc(a1-6)]GlcNAc
# Outline: as §1
# [9] = target: Gal(b1-4)GlcNAc(b1-3)Gal(b1-4)GlcNAc(b1-3)Gal(b1-4)GlcNAc
# Outline: as §1
# [10] = target: Gal(b1-4)GlcNAc(b1-3)Gal(b1-4)GlcNAc(b1-3)Gal(b1-4)GlcNAc(b1-2)Man(a1-3)[Gal(b1-4)GlcNAc(b1-3)Gal(b1-4)GlcNAc(b1-3)Gal(b1-4)GlcNAc(b1-2)Man(a1-6)]Man(b1-4)GlcNAc(b1-4)GlcNAc
# Outline: as §1
# [11] = target: Gal(b1-4)GlcNAc(b1-3)Gal(b1-4)GlcNAc(b1-3)Gal(b1-4)GlcNAc(b1-2)Man(a1-3)[Gal(b1-4)GlcNAc(b1-3)Gal(b1-4)GlcNAc(b1-3)Gal(b1-4)GlcNAc(b1-2)Man(a1-6)]Man(b1-4)GlcNAc(b1-4)[Fuc(a1-6)]GlcNAc
# Outline: as §1
# [12] = target: Gal(b1-4)GlcNAc(b1-3)Gal(b1-4)GlcNAc(b1-3)Gal(b1-4)GlcNAc(b1-2)[Gal(b1-4)GlcNAc(b1-3)Gal(b1-4)GlcNAc(b1-3)Gal(b1-4)GlcNAc(b1-6)]Man(a1-6)[Gal(b1-4)GlcNAc(b1-3)Gal(b1-4)GlcNAc(b1-3)Gal(b1-4)GlcNAc(b1-2)Man(a1-3)]Man(b1-4)GlcNAc(b1-4)[Fuc(a1-6)]GlcNAc
# Outline: as §1
# [13] = target: Gal(b1-4)GlcNAc(b1-3)Gal(b1-4)GlcNAc(b1-3)Gal(b1-4)GlcNAc(b1-3)Gal(b1-4)GlcNAc(b1-2)Man(a1-3)[Gal(b1-4)GlcNAc(b1-3)Gal(b1-4)GlcNAc(b1-3)Gal(b1-4)GlcNAc(b1-3)Gal(b1-4)GlcNAc(b1-2)Man(a1-6)]Man(b1-4)GlcNAc(b1-4)GlcNAc
# Outline: as §1
# [14] = target: Gal(b1-4)GlcNAc(b1-3)Gal(b1-4)GlcNAc(b1-3)Gal(b1-4)GlcNAc(b1-3)Gal(b1-4)GlcNAc(b1-2)Man(a1-3)[Gal(b1-4)GlcNAc(b1-3)Gal(b1-4)GlcNAc(b1-3)Gal(b1-4)GlcNAc(b1-3)Gal(b1-4)GlcNAc(b1-2)Man(a1-6)]Man(b1-4)GlcNAc(b1-4)[Fuc(a1-6)]GlcNAc
# Outline: as §1
# [15] = target: Gal(b1-4)GlcNAc(b1-3)Gal(b1-4)GlcNAc(b1-3)Gal(b1-4)GlcNAc(b1-3)Gal(b1-4)GlcNAc(b1-2)[Gal(b1-4)GlcNAc(b1-3)Gal(b1-4)GlcNAc(b1-3)Gal(b1-4)GlcNAc(b1-3)Gal(b1-4)GlcNAc(b1-6)]Man(a1-6)[Gal(b1-4)GlcNAc(b1-3)Gal(b1-4)GlcNAc(b1-3)Gal(b1-4)GlcNAc(b1-3)Gal(b1-4)GlcNAc(b1-2)Man(a1-3)]Man(b1-4)GlcNAc(b1-4)[Fuc(a1-6)]GlcNAc
# Outline: as §1
# [16] = target: Gal(b1-4)GlcNAc(b1-3)Gal(b1-4)GlcNAc(b1-3)Gal(b1-4)GlcNAc(b1-3)Gal(b1-4)GlcNAc(b1-3)Gal(b1-4)GlcNAc(b1-2)Man(a1-3)[Gal(b1-4)GlcNAc(b1-3)Gal(b1-4)GlcNAc(b1-3)Gal(b1-4)GlcNAc(b1-3)Gal(b1-4)GlcNAc(b1-3)Gal(b1-4)GlcNAc(b1-2)Man(a1-6)]Man(b1-4)GlcNAc(b1-4)GlcNAc
# Outline: as §1
# [17] = target: Gal(b1-4)GlcNAc(b1-3)Gal(b1-4)GlcNAc(b1-3)Gal(b1-4)GlcNAc(b1-3)Gal(b1-4)GlcNAc(b1-3)Gal(b1-4)GlcNAc(b1-2)Man(a1-3)[Gal(b1-4)GlcNAc(b1-3)Gal(b1-4)GlcNAc(b1-3)Gal(b1-4)GlcNAc(b1-3)Gal(b1-4)GlcNAc(b1-3)Gal(b1-4)GlcNAc(b1-2)Man(a1-6)]Man(b1-4)GlcNAc(b1-4)[Fuc(a1-6)]GlcNAc
# Outline: as §1
# [18] = target: Gal(b1-4)GlcNAc(b1-3)Gal(b1-4)GlcNAc(b1-3)Gal(b1-4)GlcNAc(b1-3)Gal(b1-4)GlcNAc(b1-3)Gal(b1-4)GlcNAc(b1-2)[Gal(b1-4)GlcNAc(b1-3)Gal(b1-4)GlcNAc(b1-3)Gal(b1-4)GlcNAc(b1-3)Gal(b1-4)GlcNAc(b1-3)Gal(b1-4)GlcNAc(b1-6)]Man(a1-6)[Gal(b1-4)GlcNAc(b1-3)Gal(b1-4)GlcNAc(b1-3)Gal(b1-4)GlcNAc(b1-3)Gal(b1-4)GlcNAc(b1-3)Gal(b1-4)GlcNAc(b1-2)Man(a1-3)]Man(b1-4)GlcNAc(b1-4)[Fuc(a1-6)]GlcNAc
# Outline: as §1
# [19] = target: Gal(b1-4)GlcNAc(b1-3)Gal(b1-4)GlcNAc(b1-3)Gal(b1-4)GlcNAc(b1-3)Gal(b1-4)GlcNAc(b1-3)Gal(b1-4)GlcNAc(b1-3)Gal(b1-4)GlcNAc(b1-2)Man(a1-3)[Gal(b1-4)GlcNAc(b1-3)Gal(b1-4)GlcNAc(b1-3)Gal(b1-4)GlcNAc(b1-3)Gal(b1-4)GlcNAc(b1-3)Gal(b1-4)GlcNAc(b1-3)Gal(b1-4)GlcNAc(b1-2)Man(a1-6)]Man(b1-4)GlcNAc(b1-4)GlcNAc
# Outline: as §1
# [20] = target: Gal(b1-4)GlcNAc(b1-3)Gal(b1-4)GlcNAc(b1-3)GalNAc
# Outline: as §1
# [21] = target: Gal(b1-4)GlcNAc(b1-3)Gal(b1-4)GlcNAc(b1-3)[Gal(b1-4)GlcNAc(b1-3)Gal(b1-4)GlcNAc(b1-6)]GalNAc
# Outline: as §1
# [22] = target: Gal(b1-4)GlcNAc(b1-3)Gal(b1-4)GlcNAc(b1-6)[Gal(b1-3)]GalNAc
# Outline: as §1
# [23] = target: Gal(b1-4)GlcNAc(b1-3)Gal(b1-4)[Fuc(a1-3)]GlcNAc(b1-3)Gal(b1-4)[Fuc(a1-3)]GlcNAc
# Outline: as §1
# [24] = target: Gal(b1-4)GlcNAc(b1-3)GalNAc
# Outline: as §1
# [25] = target: Gal(b1-4)GlcNAc(b1-3)[Fuc(a1-3)GlcNAc(b1-6)]Gal(b1-4)Glc
# Outline: as §1
# [26] = target: Gal(b1-4)GlcNAc(b1-3)[Gal(b1-4)GlcNAc(b1-6)]Gal(b1-4)GlcNAc
# Outline: as §1
# [27] = target: Gal(b1-4)GlcNAc(b1-3)[Gal(b1-4)GlcNAc(b1-6)]GalNAc
# Outline: as §1
# [28] = target: Gal(b1-4)GlcNAc(b1-3)[GlcNAc(b1-6)]Gal(b1-4)GlcNAc
# Outline: as §1
# [29] = target: Gal(b1-4)GlcNAc(b1-6)Gal(b1-4)GlcNAc
# Outline: as §1
# [30] = target: Gal(b1-4)GlcNAc(b1-6)GalNAc
# Outline: as §1
# [31] = target: Gal(b1-4)GlcNAc(b1-6)[Gal(b1-3)]GalNAc
# Outline: as §1
# [32] = target: Gal(b1-4)GlcNAc(b1-6)[Gal(b1-3)]GlcNAc
# Outline: as §1
# [33] = target: Gal(b1-4)GlcNAc(b1-6)[Gal(b1-4)GlcNAc(b1-3)]GalNAc
# Outline: as §1
# [34] = target: Gal(b1-4)GlcNAc6P
# Outline: as §1
# [35] = target: Gal(b1-6)Gal
# Outline: as §1
# [36] = target: Gal3S(b1-3)GalNAc
# Outline: as §1
# [37] = target: Gal3S(b1-3)GlcNAc
# Outline: as §1
binder,measurement,setting,value
B1,glycan array binding signal (z-score),[1],0.086
same,glycan array binding signal (z-score),[2],-0.14
same,glycan array binding signal (z-score),[3],0.229
same,glycan array binding signal (z-score),[4],-0.196
same,glycan array binding signal (z-score),[5],-0.232
same,glycan array binding signal (z-score),[6],-0.152
same,glycan array binding signal (z-score),[7],0.204
same,glycan array binding signal (z-score),[8],-0.076
same,glycan array binding signal (z-score),[9],-0.353
same,glycan array binding signal (z-score),[10],-0.291
same,glycan array binding signal (z-score),[11],-0.298
same,glycan array binding signal (z-score),[12],-0.152
same,glycan array binding signal (z-score),[13],-0.347
same,glycan array binding signal (z-score),[14],-0.234
same,glycan array binding signal (z-score),[15],-0.201
same,glycan array binding signal (z-score),[16],-0.444
same,glycan array binding signal (z-score),[17],-0.323
same,glycan array binding signal (z-score),[18],-0.084
same,glycan array binding signal (z-score),[19],-0.145
same,glycan array binding signal (z-score),[20],0.034
same,glycan array binding signal (z-score),[21],-0.105
same,glycan array binding signal (z-score),[22],-0.065
same,glycan array binding signal (z-score),[23],0.066
same,glycan array binding signal (z-score),[24],-0.142
same,glycan array binding signal (z-score),[25],-0.079
same,glycan array binding signal (z-score),[26],-0.194
same,glycan array binding signal (z-score),[27],-0.184
same,glycan array binding signal (z-score),[28],-0.258
same,glycan array binding signal (z-score),[29],1.5
same,glycan array binding signal (z-score),[30],0.398
same,glycan array binding signal (z-score),[31],0.153
same,glycan array binding signal (z-score),[32],-0.242
same,glycan array binding signal (z-score),[33],0.111
same,glycan array binding signal (z-score),[34],-0.018
same,glycan array binding signal (z-score),[35],0.714
same,glycan array binding signal (z-score),[36],-0.335
same,glycan array binding signal (z-score),[37],-0.363
